# Experimental data as given in US10654925B2, “Anti-marinobufagenin antibodies and uses thereof” (priority 2018, dated 2020).
# B1: R4CE-1E: human anti-MBG antibody, VH SEQ ID NO: 57, VL SEQ ID NO: 58 (antibody, listed as Homo sapiens, V domains shown)
# VH: QVQLQESGSGLVKPSQTLSLTCTVSGGSISSSGYYWGWIRQPPGKGLEWIGSIYHSGSTYYNPSLKSRVTISVDTSKNQFSLKLSSVTAADTAVYYCARVQLWQRGFDYWGQGTLVTVSS
# VL: [about 120 residues not listed]
# Tests used:
# Assay type in all cases: binding
# [1] = Competitive ELISA, relative CTS specificity, free MBG as competitor; conditions: competition with immobilized MBG-BSA; normalized to MBG = 100%
# Method: (§1) The specificity (relative affinity) of anti-MBG antibodies for MBG relative to various cardiotonic steroids (CTSs) was determined in a competitive ELISA. Each anti-MBG antibody was tested for its binding to immobilized MBG in the presence of free MBG, resibufogenin (RBG), cinobufagin (CINO), ouabain (OUB) or digoxin (DIG) as a competitor. A constant amount of an anti-MBG antibody (typically 1-5 μg/mL) and varying concentrations of each CTS (from 10^−12M to 10^−5M) were pre-incubated before being added to the MBG-BSA-coated wells. After washing of the wells, an anti-human Fc, HRP-conjugated secondary antibody (at 1:5000 dilution) was added to the wells and incubated at 37° C. for 1 hr. After washing of the wells, an appropriate HRP reagent (e.g., TMB ultra, Thermo Fisher) was added to the wells. OD at 450 nm was measured by a microplate reader. MBG at 10 μM was assumed to be 100% competed, and MBG at 1 pM was assumed to be 0% competed. The data was plotted as a titration of antibody-antigen binding relative to free CTS concentration in the competition reaction to determine the free CTS concentration (μM) giving 50% maximal binding of antibody to immobilized MBG. The relative specificity of an antibody for a CTS was normalized to MBG=100%.
# [2] = Competitive ELISA, relative CTS specificity, RBG as competitor; conditions: competition with immobilized MBG-BSA; normalized to MBG = 100%
# Method: as §1
# [3] = Competitive ELISA, relative CTS specificity, CINO as competitor; conditions: competition with immobilized MBG-BSA; normalized to MBG = 100%
# Method: as §1
# [4] = Competitive ELISA, relative CTS specificity, OUB as competitor; conditions: competition with immobilized MBG-BSA; normalized to MBG = 100%
# Method: as §1
# [5] = Competitive ELISA, relative CTS specificity, DIG as competitor; conditions: competition with immobilized MBG-BSA; normalized to MBG = 100%
# Method: as §1
# [6] = Competitive ELISA, free CTS competitors overall (summary and footnote); conditions: competitors RBG, CINO, OUB, DIG; Table 2
# Method: as §1
molecule,measurement,setting,value
B1,Rel. CTS Specificity as % of MBG Binding: MBG,[1],100%
same,Rel. CTS Specificity as % of MBG Binding: RBG,[2],12.5%
same,Rel. CTS Specificity as % of MBG Binding: CINO,[3],4%
same,Rel. CTS Specificity as % of MBG Binding: OUB,[4],0%
same,Rel. CTS Specificity as % of MBG Binding: DIG,[5],0%
same,reaction with CTS competitor molecules,[6],reacted with the CTS competitors RBG and CINO
